# Experimental data: paper PMC4336329 (PLoS ONE, 2015)
# About 14,000 (4.5%) of roughly 310,000 compounds showed an effect of 50% or more. Effects have a minus sign here. The list shows a part of the results.
# Target: human ether-à-go-go-related gene (hERG) potassium channel (human, UniProt Q12809)
# Assay: primary screen, population patch clamp on CHO cells stably expressing hERG
# 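Also: peak tail current of the secondary pulse compared with the same well before compound.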
# Chain of human ether-à-go-go-related gene (hERG) potassium channel (Q12809 whole entry, looked up): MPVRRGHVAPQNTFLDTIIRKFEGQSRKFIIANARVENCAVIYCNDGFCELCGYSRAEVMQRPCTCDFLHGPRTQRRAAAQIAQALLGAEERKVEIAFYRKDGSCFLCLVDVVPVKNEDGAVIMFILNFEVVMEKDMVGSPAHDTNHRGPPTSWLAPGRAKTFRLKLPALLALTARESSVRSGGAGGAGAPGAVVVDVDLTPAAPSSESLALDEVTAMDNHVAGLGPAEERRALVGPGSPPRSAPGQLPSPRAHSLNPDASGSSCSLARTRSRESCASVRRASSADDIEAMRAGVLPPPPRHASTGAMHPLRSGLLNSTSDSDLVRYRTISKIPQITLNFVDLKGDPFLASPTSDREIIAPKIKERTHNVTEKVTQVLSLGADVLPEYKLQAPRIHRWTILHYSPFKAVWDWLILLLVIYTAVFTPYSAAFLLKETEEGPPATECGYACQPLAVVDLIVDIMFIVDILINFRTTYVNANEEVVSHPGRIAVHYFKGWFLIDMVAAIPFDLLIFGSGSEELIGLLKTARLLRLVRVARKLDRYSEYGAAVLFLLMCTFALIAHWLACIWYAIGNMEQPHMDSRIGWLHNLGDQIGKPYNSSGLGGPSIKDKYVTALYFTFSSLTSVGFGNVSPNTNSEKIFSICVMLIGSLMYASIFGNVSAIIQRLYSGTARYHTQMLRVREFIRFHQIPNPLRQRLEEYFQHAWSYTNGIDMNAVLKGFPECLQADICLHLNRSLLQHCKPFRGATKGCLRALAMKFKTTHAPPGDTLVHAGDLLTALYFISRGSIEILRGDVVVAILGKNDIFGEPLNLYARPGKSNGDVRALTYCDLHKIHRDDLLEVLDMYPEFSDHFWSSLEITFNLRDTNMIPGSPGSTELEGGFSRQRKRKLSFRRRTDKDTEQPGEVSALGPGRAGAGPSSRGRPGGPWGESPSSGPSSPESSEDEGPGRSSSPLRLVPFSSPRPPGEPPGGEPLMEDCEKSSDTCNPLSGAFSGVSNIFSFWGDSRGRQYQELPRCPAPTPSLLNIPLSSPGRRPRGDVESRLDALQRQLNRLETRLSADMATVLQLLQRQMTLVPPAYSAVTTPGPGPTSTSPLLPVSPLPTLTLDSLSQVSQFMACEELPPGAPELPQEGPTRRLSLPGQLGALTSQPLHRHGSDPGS
row,SMILES,"hERG current change (%, negative = inhibition) at 10uM"
1,Nc1cc2c(cc1O)CCCC2,26.8%
2,Cc1ccc(-n2c(SCC(=O)Nc3ccc(Cl)cc3)nc(O)cc2=O)cc1,9.08%
3,O=C(c1ccc(N2CCCCS2(=O)=O)cc1)N1CCN(c2ccc(N3CCOCC3)nn2)CC1,19.7%
4,Cc1ccc(NS(=O)(=O)c2ccc(C(=O)NCc3ccncc3)cc2)cc1,5.69%
5,Cc1ccnc(NC(=S)NC(=O)/C=C/c2ccc(Cl)cc2)c1,-14.4%
6,COc1cc(C2C3=C(CC(C)(C)CC3=O)N(C)C3=C2C(=O)CC(C)(C)C3)cc(Br)c1O,-17.5%
7,Cc1cnc([N+](=O)[O-])n1CCOC(=O)c1cccc(F)c1,-3.45%
8,O=C(NC1CCS(=O)(=O)C1)/C(=C/c1ccco1)NC(=O)c1ccccc1 (stereo not drawn),11.2%
9,O=C1CC(N2CCCCCC2)C(=O)N1c1ccc(F)cc1 (stereo not drawn),14.4%
10,O=S(=O)(Nc1nc2ccc(Cl)cc2s1)c1cccs1,18.5%
11,COc1cc2cc(CCCOC(=O)c3ccc(Br)cc3)oc(=O)c2cc1OC,-8.44%
12,CC1(C)NC(=O)N(CC(O)COc2ccccc2[N+](=O)[O-])C1=O (stereo not drawn),10.2%
13,Cc1ccc(Cn2c(O)c(N=O)c3ccccc32)cc1,1.91%
14,COc1ccccc1-n1c(SCC(=O)N2CCCCC2)nc2cccnc21,-0.485%
15,Cc1ccc(NS(=O)(=O)c2ccc3c(c2)NC(=O)CO3)cc1C,14.6%
16,CC/C(C)=N\Nc1nc(-c2cc3cc(OC)ccc3oc2=O)cs1,7.11%
17,O=C(NNc1nc2ccccc2s1)c1ccc(F)cc1,-19%
18,CCOC(=O)N1CCN(C(=O)CNC(=O)c2nn(-c3ccc(OC)c(OC)c3)c(=O)c3ccccc23)CC1,8.5%
19,O=C(OCCN1C(=O)c2ccccc2C1=O)c1cc(S(=O)(=O)N2CCOCC2)ccc1F,-31.7%
20,C[C@@H](O)[C@@H]1NC(=O)c2cc([N+](=O)[O-])cc(I)c2NCC[C@@H](C(N)=O)NC(=O)CNC1=O,2.05%
21,CCCCCCCN1C=CC(=O)CC1,8.78%
22,CC1(C)Cc2noc(N)c2C(C)(C)N1OC(=O)c1ccco1,7.3%

row,SMILES,"hERG current change (%, negative = inhibition) at 10uM"
1,O=C(CNS(=O)(=O)c1ccccc1)N/N=C/c1ccc(O)cc1,-0.142%
2,O=C(Nc1ccc(S(=O)(=O)N2CCOCC2)cc1)c1c(F)cccc1F,-22.1%
3,COc1ccc(C(=O)N2CCN(S(=O)(=O)c3ccc(Br)cc3)CC2)cc1,-30%
4,CC1(C)C(=O)OC(C(=O)c2ccc(Cl)cc2)C(C)(C)C1=O (stereo not drawn),3.02%
5,C/C(=N\NC(=O)Cc1ccccc1[N+](=O)[O-])c1cccnc1,5.63%
6,CCOP(=O)(OCC)/C(=N/OC(=O)c1ccc(Cl)cc1Cl)C(N)=O,13.1%
7,C/C(=N\OCC(=O)N/N=C/c1ccccc1)c1cccs1,0.637%
8,Cc1ccc2c(CC(=O)O)coc2c1C,-2.54%
9,CCOc1cc(/C=N\NC(=O)c2ccc(NC(=O)CC)cc2)ccc1OC(=O)c1ccccc1,8.01%
10,Cc1[nH]c2ccccc2c(=O)c1C(=O)/C=C/c1ccccc1,-17.7%
11,CN(C)/C(CN1CCOCC1)=C1\N=C(c2ccccc2)OC1=O,-4.38%
12,Cl.O=C(NCCN1CCNCC1)c1ccccn1,13.1%
13,CCN(CC)CCNC(=O)c1ccc(CS(=O)(=O)c2ccc(Br)cc2)o1,-46.5%
14,CN(C)S(=O)(=O)c1ccc(Cl)c(C(=O)NCCNC(=O)c2cc(S(=O)(=O)N(C)C)ccc2Cl)c1,26.5%
15,COc1ccccc1Cn1cnc2cccnc21,13.5%
16,Cn1c(=O)c(C(=O)NCc2ccccc2)c(O)c2ccccc21,11.4%
17,CC(C)Cc1nnc(NC(=O)C2=COCCO2)s1,24.4%
18,O=C1COc2ccc(S(=O)(=O)N3CCCC3)cc2N1,19.6%
19,COC(=O)c1c(C)oc(C)c1S(=O)(=O)NCc1ccc(OC)cc1,5.07%
20,COc1cc(N=Cc2c(O)c3ccccc3oc2=O)c(OC)cc1Cl,12.8%
21,CC(=O)NC1=NN(C(C)=O)C(C)(CCS(=O)(=O)c2ccc(Cl)c(Cl)c2)S1 (stereo not drawn),-2.84%
22,COc1ccc(CN2CCC(n3nccc3NC(=O)C3CC3)CC2)c(Cl)c1OC,-39.2%

row,SMILES,"hERG current change (%, negative = inhibition) at 10uM"
1,O=C(OCc1ccc(F)cc1)c1cc(=O)c2ccccc2o1,9.19%
2,Nc1cc(=O)[nH]c(SCC(=O)Nc2ccccc2Sc2ccc(Cl)cc2)n1,14.5%
3,Cc1ccc(C(=O)OCC(=O)NCc2ccc3c(c2)OCO3)s1,-2.69%
4,CCOc1ccc(C(=O)NCCN2CCOCC2)cc1,10.3%
5,CCn1nc(C)c(C2C(C#N)=C(N)OC3=C2C(=O)CCC3)c1C (stereo not drawn),-7.39%
6,O=C(NN=C1CCCCCC1)c1cccs1,-1.18%
7,COc1cccc(C(=O)Nc2nnc(CCS(=O)(=O)c3ccc(C)cc3)s2)c1,20.3%
8,Cc1c(C)n(CCc2c[nH]c3ccccc23)ccc1=O,12.6%
9,Nc1ccc(Cc2ccc(N)c(C(=O)O)c2)cc1C(=O)O,22.6%
10,COc1cc(S(=O)(=O)N2CCOCC2)ccc1NC(=O)COC(=O)C12CC3CC(CC(C3)C1)C2,-21.8%
11,COc1ccc(NS(=O)(=O)c2c(C)[nH]c(C)c2C(=O)N2CCCCC2)cc1Cl,0.953%
12,CC(Sc1nccn1C)C(=O)c1c(N)n(C)c(=O)n(C)c1=O (stereo not drawn),15.7%
13,COc1ccc(N(CC(=O)NCc2ccccc2)S(=O)(=O)c2c(C)n[nH]c2C)cc1,-35.6%
14,CC(=O)N(C)c1nc(-c2ccc(Cl)cc2)cs1,20.6%
15,CC(C)c1ccccc1OCCNC(=S)NC(=O)c1cccnc1,41.7%
16,CCOc1ccc(CCNC(=O)c2nnn(CC(=O)Nc3c(C)cc(C)cc3C)c2N)cc1OCC,12.6%
17,COc1cc(OC)cc(-c2c(-c3cccs3)c3cc(-c4ccc(SC)cc4)ccc3n2C)c1,4.23%
18,O=C(CNC(=O)c1ccc(Oc2ccccc2)cc1)OC1CCCCC1=O (stereo not drawn),-72.2%
19,c1csc(CNc2nc(-c3cccs3)nc3ccccc23)c1,-6.81%
20,N#CC1(NC(=O)COc2ccc3ccc(=O)oc3c2)CCCCC1,-2.81%
21,O=C(CC1S/C(=N/N=C/c2cccs2)NC1=O)Nc1ccccc1F (stereo not drawn),65.3%
22,Cc1ccnc(NC(=S)NC(=O)c2ccco2)c1,-10.3%

row,SMILES,"hERG current change (%, negative = inhibition) at 10uM"
1,Cn1c(Cc2ccccc2)nnc1SCC(=O)c1ccc(Br)s1,-26.1%
2,C=C(CO)CC1CC(O)[C@]2(C)OC3CC4OC5C[C@]6(C)O[C@]7(C)CCC8OC9C[C@]%10(C)OC%11C(C)=CC(=O)OC%11CC%10OC9C[C@@H](C)C8OC7CC6O[C@]5(C)C/C=C\C4OC3CC2O1 (stereo partly drawn),10.7%
3,COC(=O)CN1C(=S)N(Cc2ccccc2)C(=O)C1CC(=O)Nc1ccc(Br)cc1 (stereo not drawn),12.9%
4,CCCCNC(=O)Cn1cnc2c(cnn2-c2ccc(C)c(C)c2)c1=O,-7%
5,COc1cccc(N2CCN(C(=S)NCCc3ccccc3)CC2)c1,3.76%
6,COc1ccc(Cl)cc1NC(=O)CCn1cnc2ccccc2c1=O,-2.16%
7,CCOc1ccc(OCC(=O)OCC(=O)NNC(=O)c2ccc([N+](=O)[O-])cc2)cc1,0.0683%
8,O=C(Nc1ccc(F)cc1F)c1c(C(F)(F)F)ccnc1Oc1ccccc1,9.99%
9,Nc1cc(C(=O)OCC(=O)NCC2CCCO2)ccc1Cl (stereo not drawn),11.7%
10,Cc1ccc(-c2csc(N/N=C/c3ccco3)n2)c(C)c1,9.24%
11,S=c1[nH]nc(Cc2ccccc2)n1-c1ccc(Cl)cc1,10.3%
12,COC(CN1CCc2c(C)nc3c(C#N)cnn3c21)OC,5.84%
13,Cc1cccc(NC(=S)NC2CCSc3ccccc32)c1 (stereo not drawn),14.5%
14,COC(=O)N1[C@H](Cc2ccccc2)C=C[C@]1(C)C(=O)O,6.17%
15,CCCNC(=O)C(=O)NCC(c1ccc2c(c1)OCO2)N1CCN(c2ccc(F)cc2)CC1 (stereo not drawn),-17.1%
16,COc1ccc(-n2cc(-c3ccccc3)[nH]c2=S)c(OC)c1,-0.146%
17,O=C(CCNS(=O)(=O)c1ccccc1)OCC(=O)c1ccc(Br)cc1,-22.3%
18,Cc1cc(N2CCOCC2)nc2ccc(NC(=O)CCC(=O)N3CCC4(CC3)OCCO4)cc12,-3.4%
19,CC1CCN(C(=O)CN2C(=O)C(=O)N(C)C2=O)c2ccccc2S1 (stereo not drawn),5.74%
20,O=[N+]([O-])c1cc(/C=N/n2cnnc2)ccc1N1CCCC1,-38.7%
21,CC(C)(C)OC(=O)N1CCCN(C(=O)Nc2ccc(C(F)(F)F)cc2)CC1,-10.4%
